Results from the supplement of paper PMC11417369.
This is one part of the list.

What follows are sequences tested on PfSIP2 AP2 domain 1 (GST-tagged) (assay: gcPBM binding intensity (ln(normalized median fluorescence intensity)); higher = stronger DNA binding).
Procedure, shortened: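 Binding intensity is the highest Masliner-normalised natural-log median intensity over replicate spots in either probe orientation. To obtain it, GST-tagged P. falciparum DNA-binding domains made in E. coli were incubated for 1 h on an Agilent 4 × 180k array of primer-extended double-stranded 36-bp intergenic genomic probes plus negative controls. Detection used Alexa488 anti-GST antibody with scanning at 488 nm.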

Q: “TTTATATATAATGTTGCATGTCAAATTTGTATATGG [TGCATGCA_site246]” was tested. Which “gcPBM binding intensity (ln)” value did it give?
A: 7.27

Q: For “TGTAGACATTAATGTAGTACAATATATATATATATT [XGTACX_site8608]”, which “gcPBM binding intensity (ln)” value is on record?
A: 7.24

Q: “TGTTCTTATACTAATAGTACTTTTAGGTACTATAAA [XGTACX_site2954]” was tested. Which “gcPBM binding intensity (ln)” value did it give?
A: 6.95

Q: “AACTCATCTTATAATTGTACATATTTATAAAAAGTA [XGTACX_site6522]” was tested. Which “gcPBM binding intensity (ln)” value did it give?
A: 7.12

Q: How did the “gcPBM binding intensity (ln)” value turn out when “TGTAGAAATGGGTGCACACACATATATAATATATAT [CACACA_site2507]” was run?
A: 12.3

Q: Which “gcPBM binding intensity (ln)” value does the source give for “AAAAAAAAAAAAAAAAAAAAAAAAAAAAAATATATA [GTGCAC_negctrl_site6]” here?
A: 8.8

Q: Which “gcPBM binding intensity (ln)” value does the source give for “TTAGGGATGCTGAAATGTACACATTTAAATTATATA [XGTACX_site3000]” here?
A: 6.99

Q: For “AATGTAAAACTAATATGTACATATCTCTAAAGAAAT [XGTACX_site8429]”, which “gcPBM binding intensity (ln)” value is on record?
A: 6.96

Q: How did the “gcPBM binding intensity (ln)” value turn out when “CGTACTAACATAAAGACACACACCACATATAATAAA [CACACA_site3603]” was run?
A: 7.14

Q: With ATTGTCTTCCTTCTGGTGCGATGTATAGGTAAAGAT as the sequence, how does the “gcPBM binding intensity (ln)” value read?
A: 8.79

Q: For “TGATAAGAAAAAGACTTTTCCTTCTTACTTTCTATG [CACACA_negctrl_site782]”, which “gcPBM binding intensity (ln)” value is on record?
A: 6.44

Q: For “AATAATGTTTTTATATCACACACAAATATTAAATGA [CACACA_site8074]”, which “gcPBM binding intensity (ln)” value is on record?
A: 7.05

Q: With “CAAAATAAATAATTTGGTACACATAAAAAAAAAAAA [XGTACX_site8380]” as the sequence, how does the “gcPBM binding intensity (ln)” value read?
A: 6.92

Q: For “CCATAAAACTATAATACACACATATAGATTAACATA [CACACA_site7849]”, which “gcPBM binding intensity (ln)” value is on record?
A: 7.02

Q: How did the “gcPBM binding intensity (ln)” value turn out when “AAAATTGGTGAAAATGAAAATATGATTATATGTATA [XGTACX_negctrl_site505]” was run?
A: 6.73

Q: With “ATAGAATCTGGTAGCTGTACGAGTCGTAGAGTGTAG [XGTACX_site2016]” as the sequence, how does the “gcPBM binding intensity (ln)” value read?
A: 7.3

Q: How did the “gcPBM binding intensity (ln)” value turn out when “ATATATTAAAAGGATTAGGAAAAAATATGATTTATC [TGCATGCA_negctrl_site405]” was run?
A: 6.77

Q: With “AAGTAAAAAAAAAAAAGTACATGTTTATATAAATAT [XGTACX_site4741]” as the sequence, how does the “gcPBM binding intensity (ln)” value read?
A: 6.9

Q: Which “gcPBM binding intensity (ln)” value does the source give for “ATACATATATATAATACACACATAAATGTAACATTT [CACACA_site3518]” here?
A: 7.26

Q: How did the “gcPBM binding intensity (ln)” value turn out when “ATAAATTAACATTAAAGTACATTTTAATAAATATTA [XGTACX_site3647]” was run?
A: 6.78

Q: “ATCCCCATAAAAAATACACACAAATATTTATACATA [CACACA_site1001]” was tested. Which “gcPBM binding intensity (ln)” value did it give?
A: 7.13

Q: With “ATTACGATAGAGAAATGTACATATATATATGTAAGT [XGTACX_site1200]” as the sequence, how does the “gcPBM binding intensity (ln)” value read?
A: 7.11

Q: “TATTTTATAAATTAATGTACATAAATTATATCTACT [XGTACX_site3625]” was tested. Which “gcPBM binding intensity (ln)” value did it give?
A: 6.88

Q: “GATCAAAATTATAGAAGTACTTTATATAAATAAAAT [XGTACX_site8161]” was tested. Which “gcPBM binding intensity (ln)” value did it give?
A: 7.02

Q: With “TATATATATAAGATTGTGCACATTAAAATGATAGAA [GTGCAC_site9621]” as the sequence, how does the “gcPBM binding intensity (ln)” value read?
A: 9.73
